{"source": "the RNAGym collection of RNA variant scans (doi:10.1093/nar/gkz1192)", "parents": {"B1": {"name": "CPEB3 Ribozyme (parent)", "chain": "UAACAGGGGGCCACAGCAGAAGCGUUCACGUCGCAGCCCCUGUCAGAUUCUGGUGAAUCUGCGAAUUCUGCUGUAUAUCUC"}}, "note": "The source gives no read counts; variants with many changes may rest on few reads.", "data": [{"variants_of": "B1", "assay": "self-cleavage, relative activity (ratio to wild type); higher = more cleavage; in vitro, sequencing", "summary_of_the_method": "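Relative activity compares each variant's cleaved/total read fraction with that of the unmutated ribozyme. To get these fractions, barcoded CPEB3 ribozyme libraries from rounds of error-prone PCR were transcribed with T7 RNA polymerase for 5 hours at 37°C and then given 15 min of DNase I treatment before EDTA was added. The RNAs were reverse transcribed with template switching and sequenced on Illumina, and DNA sequencing linked barcodes to variants. A minimum of 5 reads applied, and three batches were averaged.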", "values": [{"variant": "UAACAGGGGGCCACAGCGGAAGCGUUCACGUCGCAGCCCCUGACAGAUUCUGGUGAAUCUGUGAAUUCUGCUGUAUAUCUC", "note": "[A18G U43A C62U]", "self-cleavage": 0.12}, {"variant": "UAACAGGGGGCCACAGCGGAAGCGUCCACGUCGCAGCCCCUGUCAGAUUCUGGUGAAUCUGCGAAUUCUGCUGUAUAUCCC", "note": "[A18G U26C U80C]", "self-cleavage": 0.31}, {"variant": "UAACAGGGGGCCACAGCGGAAGCGCUCACGUCGCAGCCCCUGCCAGAUUCUGGUGAGUCUGCGAAUUCUGCUGUAUAUCUC", "note": "[A18G U25C U43C A57G]", "self-cleavage": 0.06}, {"variant": "UAACAGGGGGCCACAGCGGAAGCGUUCACGUCGCAGCCCCUGCCAGAUUCCGGUGAGUCUGCGAAUACUGCUGUAUAUCUC", "note": "[A18G U43C U51C A57G U67A]", "self-cleavage": 0.13}, {"variant": "UAACAGGGGGCCACAGCGGAAGCGUCCACGUCGCAGCCCCUGUCAGAUACUGGUGAAUCUGCUAAUCCUGCUGUAUAUCUC", "note": "[A18G U26C U49A G63U U67C]", "self-cleavage": 0.08}, {"variant": "UAACAGGGGGCCACAGCGGAAGCGUUCACGCCGCUGCCCCUGUCAGAUUCUGGUGAAUCUGCGAAUUCUGCUAUAUAUCUC", "note": "[A18G U31C A35U G73A]", "self-cleavage": 0.05}, {"variant": "UAACAGGGGGCCACAGCGGAAGCGUUCACGUCGCAGCCCCAGUCAGAUUCUGGUGAAUCUGCGAAUUCUACCGUAUAUCUC", "note": "[A18G U41A G70A U72C]", "self-cleavage": 0.23}, {"variant": "UAACAGGGGGCCACAGCGGAAGCGCUCACGUCGCAGCCCCUGUCAGAUUCCGGUGAAUCUGCGAAUUCUGCUGUGUAUCUC", "note": "[A18G U25C U51C A75G]", "self-cleavage": 0.14}, {"variant": "UAACAGGGGGCCACAGCGGAAGCGUUCACGUCGCAGCCCCAGCCAGAUUCUGGUGGGUCUGCGUAUUCUGCUGUAUAUCUC", "note": "[A18G U41A U43C A56G A57G A64U]", "self-cleavage": 0.06}, {"variant": "UAACAGGGGGCCACAGCGGAAGCGUACACGUCGCAGCCCCUGUCAGAUUCUGGUGGACCUGCGAAUUCUGCUGUAAAUCUC", "note": "[A18G U26A A56G U58C U76A]", "self-cleavage": 0.11}, {"variant": "UAACAGGGGGCCACAGCGGAAGCGUUCACGACGCAGCCCCUGUCAGAUUCUGGUGUAUCUGCGAAUUCUGCUGUAUAUCUC", "note": "[A18G U31A A56U]", "self-cleavage": 0.31}, {"variant": "UAACAGGGGGCCACAGCGGAAGCGCUCACAUCGCAGCCCCUGUCUGAUUCUGGUGAAUCUGCGAAUUGCGCUGUAUAUCUC", "note": "[A18G U25C G30A A45U C68G U69C]", "self-cleavage": 0.07}, {"variant": "UAACAGGGGGCCACAGCGGAAGCGUUCACGUCGCAGCCCCUGUCAGACUCUGGUGGAUCUGCGAAUUCCGCUGUAUAUCUC", "note": "[A18G U48C A56G U69C]", "self-cleavage": 0.49}, {"variant": "UAACAGGGGGCCACAGCGGAAGCGUUCACGUCGCAGCCCCUGUCAGAUUCCGGUGAGUCUGCGAAUUCUGCUGUAUAUCUC", "note": "[A18G U51C A57G]", "self-cleavage": 0.49}, {"variant": "UAACAGGGGGCCACAGCGGAAGCGUUCACGUCGCAGCCCCUGUCAGAUACUGGUGAAUCUGCGAAUUCUGCUGUAUAUUUC", "note": "[A18G U49A C79U]", "self-cleavage": 0.62}, {"variant": "UAACAGGGGGCCACAGCGGAAGCGUUCACGUCGCAGCCCCUGUCAGAUACUGGUGAAUCUGCGAGUUCUGCUGUAUAUCUC", "note": "[A18G U49A A65G]", "self-cleavage": 0.14}, {"variant": "UAACAGGGGGCCACAGCGGAAGCGUUCACGUCGCAGCCCCUGUCAGAUCCGGGUGAAUCUGCGAAUUCUGCUGUAUAACUC", "note": "[A18G U49C U51G U78A]", "self-cleavage": 0.45}, {"variant": "UAACAGGGGGCCACAGCGGAAGCGUUCACGUCGCAGCCCCCGUCAGAUUCUGGUGAAUCUGGGAAUUCUGCGGUAUAUCUC", "note": "[A18G U41C C62G U72G]", "self-cleavage": 0.15}, {"variant": "UAACAGGGGGCCACAGCGGAAGCGUUCACGUCGCAGCCCCUGCCAGCUUCUGGUGAAUCUGCGAAUUCUGCUGUAUAUCUC", "note": "[A18G U43C A47C]", "self-cleavage": 0.2}, {"variant": "UAACAGGGGGCCACAGCGGAAGCGUUCACGUCGCAGCCCCAGUCAGAUUCUGGUGAAUCUGCGAGUUCUGCUGUAUAUCUC", "note": "[A18G U41A A65G]", "self-cleavage": 0.13}, {"variant": "UAACAGGGGGCCACAGCGGAAGCGUACACGUCGGAACCCCUGUCAGAUUCUGGUGAAUCUGCGAAUUCUGCUGUAUAUCUC", "note": "[A18G U26A C34G G36A]", "self-cleavage": 0.04}, {"variant": "UAACAGGGGGCCACAGCGGAAGCGUUCACGUCGCAGCCCCUGGGAGAUUCUGGUGAAUCUGCGAAUUCCGCUGUAUGUCCC", "note": "[A18G U43G C44G U69C A77G U80C]", "self-cleavage": 1.02}, {"variant": "UAACAGGGGGCCACAGCGGAAGCGUUCACGUCGCAGCCCCCGACAGAUUCUGGUGAAUCUGCGAAUUCUGCUGUAUAUCUC", "note": "[A18G U41C U43A]", "self-cleavage": 0.33}, {"variant": "UAACAGGGGGCCACAGCGGAAGCGUUCACGUCGCAGCCCCCGUCAGGUUCUGGUGAAUCUGCGAAUUCUGCCGUAUAUCUC", "note": "[A18G U41C A47G U72C]", "self-cleavage": 0.37}, {"variant": "UAACAGGGGGCCACAGCGGAAGCGUUCACGUCGCAGCCCCCGUCAGACUCUGGUGAGUCUGCGGAUUCUGCUGUAUAUCUC", "note": "[A18G U41C U48C A57G A64G]", "self-cleavage": 0.4}, {"variant": "UAACAGGGGGCCACAGCGGAAGCGUUCACGUCGCAGCCCCUGUCAGAUUCCGGUGAAUCUGCGGAUUCUGCUGUACAUCUC", "note": "[A18G U51C A64G U76C]", "self-cleavage": 0.29}, {"variant": "UAACAGGGGGCCACAGCGGAAGCGUUCACGCCGCAGCCCCUGUCAGACUCUGGAGAAUCUGCGAAUUCUGCUGUAUAUCUC", "note": "[A18G U31C U48C U54A]", "self-cleavage": 0.09}, {"variant": "UAACAGGGGGCCACAGCGGAAGCGCUCACGUAGCAGCCCCUGUCAGAUCCUGGUGAAUCUGCGAAUUCUGCUGUAUACCUC", "note": "[A18G U25C C32A U49C U78C]", "self-cleavage": 0.04}, {"variant": "UAACAGGGGGCCACAGCGGAAGCGUCCACGUCGCAGCCCCCGUCAGAUACUGGUGAAUCUGCGAAUUCUGCUGUAUAUCUC", "note": "[A18G U26C U41C U49A]", "self-cleavage": 0.14}, {"variant": "UAACAGGGGGCCACAGCGGAAGCGUACACGCCGCAGCCCCUGUCAGAUUCUGGUGAAUCUGCGAAUUCUGCAGUAUAUCUC", "note": "[A18G U26A U31C U72A]", "self-cleavage": 0.09}, {"variant": "UAACAGGGGGCCACAGCGGAAGCGUUCACGUCGCAGCCCCUGCCAGAUUCUGGUGAAUCUGCGAAUUCAGCUGUAUAUCUC", "note": "[A18G U43C U69A]", "self-cleavage": 0.31}, {"variant": "UAACAGGGGGCCACAGCGGAAGCGUCCACGUCGCAGCCCCUGUCAGAUUCUGGUGAAUCUGCGAAUUACGCUGUAUAUCAC", "note": "[A18G U26C C68A U69C U80A]", "self-cleavage": 0.2}, {"variant": "UAACAGGGGGCCACAGCGGAAGCGCUCACGUCGCAGCCCCUGUCAGAUUCUGGUGAGUCUGCGAAUCCUGCUGUAUAUCUC", "note": "[A18G U25C A57G U67C]", "self-cleavage": 0.08}, {"variant": "UAACAGGGGGCCACAGCGGAAGCGUUCACGUCGCAGCCCCCGUCAGAUUCUGGCGAAUCUGCGGAUUCUGCUGUAUACCUC", "note": "[A18G U41C U54C A64G U78C]", "self-cleavage": 0.18}]}]}
